# Data published in the supplement of paper PMC11125491.
# ± gives the standard deviation of the averaged measurements. Growth of baker's yeast expressing single-residue variants of Pneumocystis jirovecii dihydrofolate reductase in 8.8 or 44 µM methotrexate (about 75% and 90% inhibition of the wild type). Selection coefficient per generation; 0 = like wild type, above 0 = less sensitive, below 0 = more sensitive or loss of function. No active / inactive call per row; the paper calls resistant above 0.220 (8.8 µM) or 0.243 (44 µM) together with a significance test. At 44 µM about 15% of codons end with one read or none, so the lowest values are floors (replicate rank correlation 0.74; 0.94 at 8.8 µM).
# B1: UniProt A0EPZ9; numbered along this chain (parent)
# chain: MDWQKSLTLIVALTLSRGIGLKNDLPWKLKSDMMFFSRVTSGLLVTRSTGQMNVVLMGRKTWESLPAHSRPLKNRINVVISRQEVLDLGGGAYHARSLDDALALLSQIYDSTSKIQLNRVFVIGGGELCKAAMEHSRLNRIIATVIHNEVDCDVFFPIDFRSSQSCLPWRKQDHSVLEAWVGSKVPQGKINENGFIYEFEMWIRDI
# Variants of: B1
# Experiment: selection coefficient against synonymous wild-type codons (log2 per generation); higher = faster growth than wild type
# Conditions: with Saccharomyces cerevisiae carrying the variant on a plasmid
# Experimental: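 Pooled growth of yeast carrying single-residue variants of P. jirovecii dihydrofolate reductase (own DFR1 gene intact), two passages at 30 °C, three cultures, sequenced before and after. Codons with under 15 starting reads are left out; codons of one change are averaged.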
Variant,selection coefficient against synonymous wild-type codons (log2) (methotrexate 8.8 µM),selection coefficient against synonymous wild-type codons (log2) (methotrexate 44 µM)
MDWQKSLTLIVALTLSRGIGLKNDLPWKLKSDMMFFSRVTSGLLVTRSTGQPNVVLMGRKTWESLPAHSRPLKNRINVVISRQEVLDLGGGAYHARSLDDALALLSQIYDSTSKIQLNRVFVIGGGELCKAAMEHSRLNRIIATVIHNEVDCDVFFPIDFRSSQSCLPWRKQDHSVLEAWVGSKVPQGKINENGFIYEFEMWIRDI [M52P],-0.164 ± 0.13,-0.16 ± 0.17
MDWQKSLTLIVALTLSRGIGLKNDLPWKLKSDMMFFSRVTSGLLVTRSTGQQNVVLMGRKTWESLPAHSRPLKNRINVVISRQEVLDLGGGAYHARSLDDALALLSQIYDSTSKIQLNRVFVIGGGELCKAAMEHSRLNRIIATVIHNEVDCDVFFPIDFRSSQSCLPWRKQDHSVLEAWVGSKVPQGKINENGFIYEFEMWIRDI [M52Q],-0.113 ± 0.059,-0.119 ± 0.1
MDWQKSLTLIVALTLSRGIGLKNDLPWKLKSDMMFFSRVTSGLLVTRSTGQRNVVLMGRKTWESLPAHSRPLKNRINVVISRQEVLDLGGGAYHARSLDDALALLSQIYDSTSKIQLNRVFVIGGGELCKAAMEHSRLNRIIATVIHNEVDCDVFFPIDFRSSQSCLPWRKQDHSVLEAWVGSKVPQGKINENGFIYEFEMWIRDI [M52R],-0.191 ± 0.15,-0.156 ± 0.086
MDWQKSLTLIVALTLSRGIGLKNDLPWKLKSDMMFFSRVTSGLLVTRSTGQSNVVLMGRKTWESLPAHSRPLKNRINVVISRQEVLDLGGGAYHARSLDDALALLSQIYDSTSKIQLNRVFVIGGGELCKAAMEHSRLNRIIATVIHNEVDCDVFFPIDFRSSQSCLPWRKQDHSVLEAWVGSKVPQGKINENGFIYEFEMWIRDI [M52S],-0.216 ± 0.071,-0.159 ± 0.11
MDWQKSLTLIVALTLSRGIGLKNDLPWKLKSDMMFFSRVTSGLLVTRSTGQTNVVLMGRKTWESLPAHSRPLKNRINVVISRQEVLDLGGGAYHARSLDDALALLSQIYDSTSKIQLNRVFVIGGGELCKAAMEHSRLNRIIATVIHNEVDCDVFFPIDFRSSQSCLPWRKQDHSVLEAWVGSKVPQGKINENGFIYEFEMWIRDI [M52T],-0.0794 ± 0.069,-0.0259 ± 0.17
MDWQKSLTLIVALTLSRGIGLKNDLPWKLKSDMMFFSRVTSGLLVTRSTGQVNVVLMGRKTWESLPAHSRPLKNRINVVISRQEVLDLGGGAYHARSLDDALALLSQIYDSTSKIQLNRVFVIGGGELCKAAMEHSRLNRIIATVIHNEVDCDVFFPIDFRSSQSCLPWRKQDHSVLEAWVGSKVPQGKINENGFIYEFEMWIRDI [M52V],-0.0484 ± 0.037,-0.031 ± 0.057
MDWQKSLTLIVALTLSRGIGLKNDLPWKLKSDMMFFSRVTSGLLVTRSTGQWNVVLMGRKTWESLPAHSRPLKNRINVVISRQEVLDLGGGAYHARSLDDALALLSQIYDSTSKIQLNRVFVIGGGELCKAAMEHSRLNRIIATVIHNEVDCDVFFPIDFRSSQSCLPWRKQDHSVLEAWVGSKVPQGKINENGFIYEFEMWIRDI [M52W],-0.255 ± 0.083,-0.0757 ± 0.049
MDWQKSLTLIVALTLSRGIGLKNDLPWKLKSDMMFFSRVTSGLLVTRSTGQYNVVLMGRKTWESLPAHSRPLKNRINVVISRQEVLDLGGGAYHARSLDDALALLSQIYDSTSKIQLNRVFVIGGGELCKAAMEHSRLNRIIATVIHNEVDCDVFFPIDFRSSQSCLPWRKQDHSVLEAWVGSKVPQGKINENGFIYEFEMWIRDI [M52Y],-0.195 ± 0.068,-0.171 ± 0.14
MDWQKSLTLIVALTLSRGIGLKNDLPWKLKSDMMFFSRVTSGLLVTRSTGQMAVVLMGRKTWESLPAHSRPLKNRINVVISRQEVLDLGGGAYHARSLDDALALLSQIYDSTSKIQLNRVFVIGGGELCKAAMEHSRLNRIIATVIHNEVDCDVFFPIDFRSSQSCLPWRKQDHSVLEAWVGSKVPQGKINENGFIYEFEMWIRDI [N53A],0.0871 ± 0.026,0.00474 ± 0.13
MDWQKSLTLIVALTLSRGIGLKNDLPWKLKSDMMFFSRVTSGLLVTRSTGQMCVVLMGRKTWESLPAHSRPLKNRINVVISRQEVLDLGGGAYHARSLDDALALLSQIYDSTSKIQLNRVFVIGGGELCKAAMEHSRLNRIIATVIHNEVDCDVFFPIDFRSSQSCLPWRKQDHSVLEAWVGSKVPQGKINENGFIYEFEMWIRDI [N53C],-0.142 ± 0.099,-0.163 ± 0.12
MDWQKSLTLIVALTLSRGIGLKNDLPWKLKSDMMFFSRVTSGLLVTRSTGQMDVVLMGRKTWESLPAHSRPLKNRINVVISRQEVLDLGGGAYHARSLDDALALLSQIYDSTSKIQLNRVFVIGGGELCKAAMEHSRLNRIIATVIHNEVDCDVFFPIDFRSSQSCLPWRKQDHSVLEAWVGSKVPQGKINENGFIYEFEMWIRDI [N53D],0.481 ± 0.0066,0.5938 ± 0.0022
MDWQKSLTLIVALTLSRGIGLKNDLPWKLKSDMMFFSRVTSGLLVTRSTGQMEVVLMGRKTWESLPAHSRPLKNRINVVISRQEVLDLGGGAYHARSLDDALALLSQIYDSTSKIQLNRVFVIGGGELCKAAMEHSRLNRIIATVIHNEVDCDVFFPIDFRSSQSCLPWRKQDHSVLEAWVGSKVPQGKINENGFIYEFEMWIRDI [N53E],0.207 ± 0.0097,0.237 ± 0.029
MDWQKSLTLIVALTLSRGIGLKNDLPWKLKSDMMFFSRVTSGLLVTRSTGQMFVVLMGRKTWESLPAHSRPLKNRINVVISRQEVLDLGGGAYHARSLDDALALLSQIYDSTSKIQLNRVFVIGGGELCKAAMEHSRLNRIIATVIHNEVDCDVFFPIDFRSSQSCLPWRKQDHSVLEAWVGSKVPQGKINENGFIYEFEMWIRDI [N53F],-0.396 ± 0.15,-0.247 ± 0.049
MDWQKSLTLIVALTLSRGIGLKNDLPWKLKSDMMFFSRVTSGLLVTRSTGQMGVVLMGRKTWESLPAHSRPLKNRINVVISRQEVLDLGGGAYHARSLDDALALLSQIYDSTSKIQLNRVFVIGGGELCKAAMEHSRLNRIIATVIHNEVDCDVFFPIDFRSSQSCLPWRKQDHSVLEAWVGSKVPQGKINENGFIYEFEMWIRDI [N53G],0.00437 ± 0.068,0.0549 ± 0.078
MDWQKSLTLIVALTLSRGIGLKNDLPWKLKSDMMFFSRVTSGLLVTRSTGQMHVVLMGRKTWESLPAHSRPLKNRINVVISRQEVLDLGGGAYHARSLDDALALLSQIYDSTSKIQLNRVFVIGGGELCKAAMEHSRLNRIIATVIHNEVDCDVFFPIDFRSSQSCLPWRKQDHSVLEAWVGSKVPQGKINENGFIYEFEMWIRDI [N53H],-0.155 ± 0.085,-0.117 ± 0.099
